Out of some 310,000 compounds screened, about 14,000 (4.5%) showed an effect of 50% or more. The effect is printed as a negative number. The list shows a part of the results.
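Also: peak tail current of the secondary pulse compared with the same well before compound.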

Sequence of human ether-à-go-go-related gene (hERG) potassium channel (Q12809 whole entry, looked up): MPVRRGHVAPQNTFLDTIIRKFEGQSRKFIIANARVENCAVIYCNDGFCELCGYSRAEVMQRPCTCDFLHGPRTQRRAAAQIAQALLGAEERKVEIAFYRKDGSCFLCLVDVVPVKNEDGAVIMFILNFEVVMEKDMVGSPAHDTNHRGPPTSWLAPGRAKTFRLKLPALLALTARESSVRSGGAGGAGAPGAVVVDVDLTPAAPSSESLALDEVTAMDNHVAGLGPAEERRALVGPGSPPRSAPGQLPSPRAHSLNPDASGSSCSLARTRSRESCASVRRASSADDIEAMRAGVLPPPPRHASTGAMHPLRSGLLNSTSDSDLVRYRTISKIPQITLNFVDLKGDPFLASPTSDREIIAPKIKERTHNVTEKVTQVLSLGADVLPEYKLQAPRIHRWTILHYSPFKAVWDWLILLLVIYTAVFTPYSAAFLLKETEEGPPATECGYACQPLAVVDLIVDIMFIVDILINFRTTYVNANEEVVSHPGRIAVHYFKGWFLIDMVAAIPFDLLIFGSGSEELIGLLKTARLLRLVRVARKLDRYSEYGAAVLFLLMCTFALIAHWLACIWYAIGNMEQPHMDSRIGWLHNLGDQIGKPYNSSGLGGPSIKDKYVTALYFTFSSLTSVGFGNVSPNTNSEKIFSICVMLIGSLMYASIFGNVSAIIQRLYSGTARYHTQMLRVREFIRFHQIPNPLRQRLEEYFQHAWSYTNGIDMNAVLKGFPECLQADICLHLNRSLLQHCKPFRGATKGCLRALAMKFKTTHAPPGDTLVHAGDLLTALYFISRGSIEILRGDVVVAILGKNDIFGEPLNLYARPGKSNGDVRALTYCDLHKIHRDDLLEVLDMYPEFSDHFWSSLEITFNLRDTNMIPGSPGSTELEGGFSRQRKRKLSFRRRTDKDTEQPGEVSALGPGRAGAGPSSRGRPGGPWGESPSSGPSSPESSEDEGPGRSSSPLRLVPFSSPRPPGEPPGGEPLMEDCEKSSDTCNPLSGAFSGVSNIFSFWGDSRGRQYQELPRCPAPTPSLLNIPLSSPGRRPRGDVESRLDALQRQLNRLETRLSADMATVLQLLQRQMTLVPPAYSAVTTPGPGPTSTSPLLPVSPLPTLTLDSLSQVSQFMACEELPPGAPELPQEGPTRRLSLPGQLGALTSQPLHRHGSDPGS

The assay addresses human ether-à-go-go-related gene (hERG) potassium channel (human, UniProt Q12809). Description: primary screen, population patch clamp on CHO cells stably expressing hERG.
As to `Cc1c(N=N/C(C(=O)Nc2ccccc2)=C(/O)c2ccccc2)c(=O)n(-c2ccccc2)n1C`, the “hERG current change (%, negative = inhibition) at 10uM” value is on record as 8.85%.
Under `CCOC(=O)N1CCC(NC(=O)c2ccc3c(c2)N(C)C(=O)/C(=C/c2cccc(OC)c2)S3)CC1` stands 4.21%; under `Cn1c(-c2cccs2)[n+](C)c2ccccc21.[Cl-]`, -25.3%; under `N=c1c2c(-c3ccccc3)c(-c3ccccc3)n(Cc3ccco3)c2ncn1Cc1ccco1`, -71.2%.
The result for `O=C1c2ccccc2-c2nnc(-c3ccc(F)cc3)cc21` reads 4.62%; that for `O=c1[nH]cnc2c1c(-c1ccccc1)cn2-c1cccc(Cl)c1`, 7.63%.
The result for `CCn1c(CN2CCN(c3ccc(OC)cc3)CC2)nc2cc(S(=O)(=O)N(C)C)ccc21` reads 25.7%; that for `COc1ccccc1C1CC(c2ccc(Cl)cc2Cl)Nc2nc(N)nn21` (stereo not drawn), -44.7%.
In the case of `CC(C)(C)C1CCC(OC(=O)CCC(=O)Nc2ccccc2)CC1` (stereo not drawn), the “hERG current change (%, negative = inhibition) at 10uM” value was 8%.
The result for `CCN1CCN(C(CNS(=O)(=O)c2cccs2)c2cccnc2)CC1` (stereo not drawn) reads -61.4%; that for `COc1ccc2c(c1)C(C)=CC(C)(C)N2C(=O)CNCc1ccc2c(c1)OCO2.O=C(O)C(=O)O`, -23%; that for `CCn1cc(Br)c(C(=O)N(C)Cc2ccccc2)n1`, 6.42%.
The result for `COC(=O)c1scc2c(Oc3ccccc3)cc(C(F)(F)F)nc12` reads 8.62%; that for `Cc1ccc(C2NCCS2)cc1` (stereo not drawn), 14%.
The result for `O=C1C/C(=C/NCc2ccccc2)C(=O)N1` reads 9.47%; that for `O=Cc1ccc(Oc2cnccn2)cc1`, 19.8%.
In the case of `C=CCNc1nc(C(=O)OCC(=O)Nc2c(Cl)cccc2C(F)(F)F)cs1`, the “hERG current change (%, negative = inhibition) at 10uM” value turned out to be 16%.
Turning to `O=C(c1cc(-c2ccc(F)cc2)on1)N1CCOCC1`, the “hERG current change (%, negative = inhibition) at 10uM” value turned out to be 3.48%.
The result for `CC(C)C1Nc2ccc(C(=O)NCCCN3CCOCC3)cc2NC1=O` (stereo not drawn) reads 19.3%; that for `COc1ccc(Cl)cc1NC(=O)CN(C)C(=O)c1ccc(N2CCCCCC2)c([N+](=O)[O-])c1`, 5.32%; that for `Cc1cc2oc(=O)ccc2cc1[N+](=O)[O-]`, 17.4%.
The result for `COc1cc(OC)cc(C(=O)OCC(=O)Nc2ccc(F)cc2F)c1` reads 4.34%; that for `O=C(c1cc2ccccc2c(=O)o1)N1CCCc2ccccc21`, 10.4%; that for `CCC(=O)N1c2ccc(S(=O)(=O)CCC(=O)Nc3ccc(OC)cc3OC)cc2CC1C` (stereo not drawn), 6.78%.
The result for `Cc1cccc(C)c1NC(=O)CNC(=O)C12CC3CC(CC(O)(C3)C1)C2` reads 21%.
With `COc1cc(C(C(=O)NC2CCCC2)N(CCO)C(=O)Cn2nnc(-c3ccc(C)o3)n2)ccc1O` (stereo not drawn), the “hERG current change (%, negative = inhibition) at 10uM” value is 9.04%.
Under `COc1ccccc1/C=C/C(=O)c1ccc(NC(C)=O)cc1` stands 0.555%; under `COc1ccccc1NC(=O)CSc1nnc(-c2ccncc2)o1`, 11.1%; under `CCOC(=O)Cn1c(COc2ccccc2OC)[n+](C)c2ccccc21`, 7.4%.
Under `CCN(c1ccc(NC(=O)COC(=O)c2ccc(C)s2)cc1)C(C)C` stands 10.5%.
The result for `CCC(C)C(NC(=O)C1CCC(C)CC1)C(=O)NCc1ccccn1` (stereo not drawn) reads -4.46%.
Turning to `O=C(NCC(=O)N(c1cccc(F)c1)C(C(=O)NC1CCCC1)c1ccco1)c1ccco1` (stereo not drawn), the “hERG current change (%, negative = inhibition) at 10uM” value was found to be 8.07%.
Regarding `COc1cc(C(=O)OCC(=O)N2c3ccccc3NC(=O)C2(C)C)ccc1OCC(C)C`, the “hERG current change (%, negative = inhibition) at 10uM” value came out at 9.06%.
Under `O=C(Nc1cccc([N+](=O)[O-])c1)c1ccc2nc(N3C(=O)CCC3=O)sc2c1` stands -20.1%; under `Cc1ccc(NS(=O)(=O)c2cc(C(=O)O)ccc2Cl)c(C)c1`, 3.51%; under `Cl.Nc1cc(Cl)ccc1N1CCCC1`, 8.82%.
The result for `Cc1cc(N/C=C/C(=O)c2cccc3ccccc23)no1` reads -2.81%; that for `Cc1ccc(C(=O)Nc2cc([N+](=O)[O-])ccc2C)cc1`, -4.54%.
Under `CCC(C(=O)NC1CC1)n1nc(C)c2c(C)n(-c3ccc(C)cc3)nc2c1=O` (stereo not drawn) stands -62%; under `O=C(c1ccc2nc(-c3ccco3)c(-c3ccco3)nc2c1)N1CCC2(CC1)OCCO2`, -17.7%.
Regarding `COc1cccc(CNC(=O)CCCn2nc(C)c3c(C)n(-c4ccccc4)nc3c2=O)c1`, the “hERG current change (%, negative = inhibition) at 10uM” value is listed as -10%.
As for `NS(=O)(=O)c1ccc(CCNC(=O)CN2CCN(Cc3cccc(C(F)(F)F)c3)CC2)cc1`, the “hERG current change (%, negative = inhibition) at 10uM” value came out at 14.9%.
The result for `Cc1c(Cl)ccc(S(=O)(=O)NCCCn2ccnc2)c1Cl` reads -8.68%.
Under `COC1CCN(C(=O)CC2C(=O)NCCN2CC(C)(C)C)CC1` (stereo not drawn) stands 18.5%; under `COc1ccc(NC(=O)CC(C)(C)C)c([N+](=O)[O-])c1`, -1.18%.

The record behind these values is article PMC4336329 (PLoS ONE, 2015).
